Source: patent US20020037832A1, “Use of alpha-MSH and EPO for preventing or treating ischemic conditions” (priority 2000, published 2002)

System: splanchnic artery occlusion shocked rats
Experiment: Splanchnic artery occlusion shock (SAO-shock): 45 minutes clamping of coeliac trunk and superior mesenteric artery, four hours reperfusion
Details: α-MSH 200 μg/kg or rh-EPO 200 IU/kg i.v.

Substance | rats alive at the end of the 4 hour follow up period
epoetin alfa [rh-EPO, reference compound] | 80%
α-melanocyte stimulating hormone [α-MSH] | 80%
